Consider 120 sequences from the supplement of paper PMC10126150.

Sequences with one replicate were seen in a single cluster, so their values are uncertain.

This data set has as its system ATP. In words: switch fluorescence ratio, 500 uM ATP over buffer (Cy3 cluster intensity, sum of 5 cycles each) (fold (ratio)); higher = stronger signal-on switching upon ATP binding; sequences stand for … in TCGTCGGCAGCGTCAGATGTGTATAAGAGACAGTTTTTTTTTTTTTTTTTTTTTTTTT…TC. The settings on record: aptamer strand: ATP DNA aptamer (quencher-CACCTGGGGGAGTATTGCGGAGGAAGG + anchor), 100 nM annealed; ATP concentration: 500 uM; one replicate. The essentials: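 The fluorescence ratio divides summed target-cycle Cy3 intensity by summed buffer-cycle Cy3 intensity for each cluster and is averaged per switch-domain sequence. Cy3-labelled switching-strand clusters on a modified Illumina MiSeq flow-cell were annealed to 100 nM quencher-labelled ATP aptamer, then imaged in selection buffer and again after 15 min with 500 uM ATP at 22 °C. Five such cycles were run, with NaOH stripping and re-annealing between them, and clusters outside 100-1000 RFU were excluded.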
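Note: ATP exposure 15 min at 22 °C before imaging.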

Regarding AACGTAACGA, the switch fluorescence ratio was 1.33.
To TACTCAGTAG belongs 1.01; to TTGTAATACA, 1.08; to CCCCCCACTT, 1.09.
To CTCTATTGGC belongs 1.05.
To TGAGATCAGT belongs 1.03.
Turning to TGTTTCAGAC, the switch fluorescence ratio was determined as 0.956.
Take ACGCGTCTGG: the switch fluorescence ratio is 0.982.
To TCAGGTATGA belongs 0.974; to GAGGCCTACT, 1.94.
Take TACAGTCCAA: the switch fluorescence ratio turned out to be 0.999.
To TGTTCTATTG belongs 0.966; to CAGGGCAAGA, 1.17; to GCAGGACTGA, 1.01.
The figure for ACGACAGGCA is 1.16; for AGGGACTAAC it is 1.06.
To TCACGGAGGC belongs 0.966; to TGATGGAGCC, 1.04.
With AGAATCGCTC, the switch fluorescence ratio worked out at 0.975.
To CTTGACACTG belongs 1.02; to TGAGCTCAC, 1.05.
For ACAAATCGCT, the switch fluorescence ratio was 1.01.
The figure for AACGGTCACG is 1.04; for CGAGATCATG it is 1.02.
As for TTGGTCCGGG, the switch fluorescence ratio came to 0.978.
The figure for AGTCGTACTA is 0.992; for TCCTGGAGTA it is 1.01.
To GGAAGATGAA belongs 1.01; to CTGGGAACT, 0.988.
The figure for AAGGGCGCGG is 1; for CGCTATGGG it is 1.03; for GGGAGTGCAA it is 1.04.
For ACATAAACCT, the switch fluorescence ratio was 2.87.
As to GTCACTCGGG, the switch fluorescence ratio was found to be 1.02.
The figure for TCCAAACGTG is 0.998.
To GTGCTCCTCT belongs 0.983.
To GAGGTCAGTA belongs 1.03; to CCGACAGTCT, 1.11.
As for GTGTCTGGCA, the switch fluorescence ratio is 1.01.
To CCGTTGCCGA belongs 0.993.
To GGTAGGAGTG belongs 1.03; to ATGCATTCAA, 0.994; to CGCGTTTGAG, 1.08.
The figure for ACGTGTGTCA is 0.994; for GAAAATCGAG it is 1; for TCGTAGGCCG it is 0.956.
As for AGGTAGTAAA, the switch fluorescence ratio is 0.981.
For the sequence TAGTAGGA, the switch fluorescence ratio worked out at 1.02.
In the case of TACAGCCCAA, the switch fluorescence ratio is 0.892.
To CCGGATAGTC belongs 1.71; to TACAAAGGGG, 1.02; to GGGTCAGGAA, 1.01.
To TCATTCCTAA belongs 1.01; to GATGTTATAC, 1.54; to CTTTGATCCA, 0.972.
For TGGGATTGGT, the switch fluorescence ratio stood at 0.966.
The figure for TGCGGCCCCT is 1.05.
To ATACATATGT belongs 1.01; to AACAATATTC, 1.06.
The figure for TGTGAGTAAA is 1.03.
Turning to CCGATTTGGG, the switch fluorescence ratio is 0.968.
The figure for GCTTGGAGCT is 0.997.
CATCTCTTTC: the switch fluorescence ratio came out at 1.15.
The figure for ATCGGACAGG is 1.05.
The figure for TGAATGGGTT is 1.1.
The figure for AGTGCAACAT is 0.989; for TAACCAGGCT it is 0.984.
Regarding GGATAAGACT, the switch fluorescence ratio was 0.989.
The figure for TTCGTTTGT is 0.983; for TTGGCTCC it is 1.11; for CATAGCTAGT it is 1.03.
The figure for TTTAAAGAAC is 1; for GATAGCGCTC it is 0.947; for CTACGCTGCG it is 1.08.
As to CGGGGAACCT, the switch fluorescence ratio stood at 0.986.
The figure for ATTGGGCTCG is 0.991; for GCAGGGCATC it is 0.992.
As for TAGTGAAGAA, the switch fluorescence ratio came to 1.02.
To TTCACCAGAC belongs 1.13; to CACGTGTACG, 1.02.
The figure for TTAGGTGGA is 1.05.
As for CCATCGTGCA, the switch fluorescence ratio amounted to 1.08.
On to CGATACGGTA, for which the switch fluorescence ratio came out at 0.964.
The figure for GATCGTGCCT is 1.02; for AGTCTTATGG it is 1.3; for TTGTACGACG it is 1.07.
As to TTCACCGGAT, the switch fluorescence ratio is 1.04.
For AACTCCTAGG, the switch fluorescence ratio is 1.26.
The figure for CGCGCATGAT is 1.14; for ACGGGCAGAC it is 1.98; for TAGCGGATCG it is 0.952.
To AAAACGGGGT belongs 0.961; to CATCCTTAGT, 1.02.
To ATATAAAGCG belongs 0.952; to ATAGACAGG, 0.995; to AGTAAGAGT, 1.
For the sequence CAGTTAGGAA, the switch fluorescence ratio was 1.
To GGGGTGTGAT belongs 1.03; to TAGCTTACTT, 1.05; to TAGTTAGAGA, 1.
To GTGGTGCGGG belongs 0.971.
To AAGCCATGGC belongs 0.926; to AACCTGATAT, 1.37.
With ACGATTCAGG, the switch fluorescence ratio turned out to be 1.43.
To AAGTGTATCT belongs 1.03; to TAAAACGATG, 1.03.
To TTCAGCTCCA belongs 1.01; to GTAGCCGTTT, 1.2; to TGCAGAGGCT, 1.06.
To ACCAGTAGCA belongs 1.07; to GCTTATTGGA, 0.977.
As to AAGCACTGAC, the switch fluorescence ratio was found to be 1.53.
The figure for CCAGAGGTCC is 1.11; for CGTTCTCCTG it is 1.01; for ATACGGGATG it is 1.05.
Consider GCGAAGCGAA, for which the switch fluorescence ratio is 0.985.
To CTCCTTTTGG belongs 0.984; to GAACCATTAT, 1.02; to GATGTTGTCT, 1.06.
The figure for GGTGGAAGAC is 0.989.
